In PubChem BioAssay AID504467 (National Center for Advancing Translational Sciences (NCATS), 2011):
About 7,700 (2.3%) of roughly 330,000 compounds were called active. Not shown: some 26% with an inconclusive outcome. Calls follow the shape of the dose curve; as a rule, active = well fitted inhibition curve with a large enough effect; inconclusive = small, poorly fitted or top-dose-only effect, or effect the other way; inactive = flat fitted curve, though single readings scatter. This is a selection; strong and weak results do not stand in their true shares.

assay: qHTS screen for small molecules that inhibit ELG1-dependent DNA repair in human embryonic kidney (HEK293T) cells expressing luciferase-tagged ELG1; settings: HEK293T ELG1-luciferase reporter, luminescence, 16 h, DNA damage induced by 5-fluorouridine; series mostly up to 46.1 µM; activity change, negative = inhibition: at the top concentration; also: nearly all actives have a fitted effect of over 55% in size
Description: NIH Molecular Libraries Probe Production Network [MLPCN] NIH Chemical Genomics Center [NCGC] MLPCN Grant: 1 R03 MH092164-01 Assay Provider: Kyungjae Myung, NHGRI, NIH Keywords: MLPCN, qHTS, NCGC, genotoxicity, cancer Assay Overview: Cancer cells divide rapidly compared to normal cells in the body. During cell division, cancer cells need to duplicate their genome by DNA replication. The failure of genome duplication leads to cancer cells' death. Therefore, inhibitors of DNA replication could specifically kill cancer cells. Based on this concept, many chemotherapeutic agents were developed and have been used to treat cancer patients. However, there are a limited number of agents available in the clinical setting, and some of those that do exist have low efficacy and severe side effects. Therefore, if we can find the compounds that effectively block DNA replication either by directly damaging DNA or by inhibiting other cellular mechanisms, the options for cancer treatment will be broadened. With this in mind, we developed a quantitative high-throughput ELG1-luciferase reporter gene assay. Small molecules that specifically block ELG1 function in response to DNA damage can be identified by monitoring the suppression of luciferase activity. Since ELG1 defines a pathway for repairing DNA damage, agents blocking ELG1 function can be used to sensitize cancer cells to chemotherapeutic agents whose mechanism of action involves the induction of DNA damage.
Assay Protocol Summary: For genotoxicity screening, 2,000 cells in 4 uL/well were dispensed into white, solid-bottom 1536-well plates using a solenoid-based dispenser. Following transfer of 1 uL 5-Fluorouridine and 23 nL compound or DMSO vehicle by a pin tool, the plates were incubated 16 hr at 37 °C and 5% CO2. 5 ul ONE-Glo (Promega) was then added to each plate and following a 30 min incubation at room temperature, luciferase activity was quantified on a ViewLux CCD-based plate reader.
% is scaled to controls: 0 for no effect and ±100 for the full control effect; potency is read from the fitted curve at half-maximal effect.

Row | SMILES | activity change, negative = inhibition | Potency
1 | NC(=O)C1=C[C@@H](c2ccc(Br)cc2)C[C@@H](OCc2ccc(CO)cc2)O1 | inactive: -0.328% | –
2 | CCOC(=O)c1sc2nc(CC(=O)OC)nc(NCc3ccc(Cl)cc3)c2c1C | – | active: 5.8 µM
3 | COc1ccccc1N1CCN(/N=C/C=C\c2ccccc2[N+](=O)[O-])CC1 | inactive: -7.15% | –
4 | C[C@H](CO)N1C[C@H](C)[C@@H](CN(C)C(=O)Nc2ccc3c(c2)OCO3)Oc2c(NC(=O)C3CC3)cccc2C1=O | inactive: -0.0662% | –
5 | C=CC[C@@H](CC(=O)N(CCO)Cc1ccccc1)C(=O)N[C@@H](C)COC(=O)[C@@H](CC=C)CC(=O)OC(C)(C)C | inactive: -2.79% | –
6 | O=C(CCCNC(=O)/C(=C\c1ccccc1F)NC(=O)c1ccccc1)OCc1ccccc1 | inactive: -7.6% | –
7 | O=C1/C(=N\S(=O)(=O)c2cccs2)C([n+]2cccc(Cc3ccccc3)c2)=C([O-])c2ccccc21 | – | active: 2.31 µM
8 | CC(C)(C)OC(=O)C[C@H]1C/C=C\C[C@H](CC(=O)NCCO)C(=O)NCCOC1=O | inactive: 27.2% | –
9 | CCOC(=O)[C@@H]1[C@H]2COc3cc(OC)ccc3[C@H]2N2C(=O)N(c3ccc(F)cc3)C(=O)[C@@]12C | inactive: 27.7% | –
10 | COc1cc(/C=C2/SC(=S)N(CC(=O)NC(C)(C)C)C2=O)cc(OC)c1OC | inactive: -17.5% | –
11 | COc1ccc2cc3[n+](cc2c1OC)CCc1cc2c(cc1-3)OCO2 | inactive: 1.63% | –
12 | CC(C)(C)NCC(O)COc1cccc2c1CC(O)C(O)C2 (centres undefined) | inactive: 18.7% | –
13 | COc1ccc(-c2csc(NC(=O)Cc3ccccc3F)n2)cc1OC | – | active: 16.4 µM
14 | CCO[C@@H]1OC(C(=O)N2CCN(Cc3ccc4c(c3)OCO4)CC2)=C[C@H](c2ccc3c(c2)OCO3)[C@H]1CCCO | inactive: -16.7% | –
15 | C[C@@H](NC(=O)OC(C)(C)C)C(=O)NCC1CCC(C(=O)N[C@@H](Cc2ccccc2)C(=O)O)CC1 (some centres undefined) | inactive: 18.5% | –
16 | C[C@H]1CC[C@@]2(O[C@@H](CCO)C[C@@H](O)[C@@H]2O)O1 | inactive: 9.05% | –
17 | CC(=O)C[C@H](O)CC(=O)[C@@H]1OC(=O)[C@@H](C)C/C=C\Cc2ccccc21 | inactive: 8.08% | –
18 | CC(=O)O[C@]1(C(C)=O)CC[C@H]2[C@@H]3C=C(C)C4=CC(=O)CC[C@]4(C)[C@H]3CC[C@@]21C | inactive: -6.03% | –
19 | CC(C)[C@H](NC(=O)N1CCn2c1nc1ccccc12)C(=O)N[C@H](C(=O)O)c1ccccc1 | inactive: 0.961% | –
20 | Cc1ccsc1/C=C1/SC(N2CC(C)OC(C)C2)=NC1=O (centres undefined) | inactive: -28.5% | –

Row | SMILES | activity change, negative = inhibition | Potency
21 | CCOC(=O)[C@H]1[C@H]2COc3ccc(Br)cc3[C@@H]2N2C(=O)N(c3ccc(F)cc3)C(=O)[C@@]12C | inactive: -7.99% | –
22 | O=C(c1cc(C(=O)NCCc2ccccc2)c(=O)n(CCc2ccccc2)c1)c1cc(Cl)ccc1O | – | active: 23.1 µM
23 | CCOC(=O)[C@H]1[C@H]2COc3cc(OC)ccc3[C@@H]2N2C(=O)N(c3ccc(Br)cc3)C(=O)[C@@]12C | inactive: -6.4% | –
24 | O=C(NCC1CCN(c2ccc(S(=O)(=O)N3CCOCC3)cc2)CC1)Nc1ccccc1 | – | active: 14.6 µM
25 | NC1=NC(=O)/C(=C\c2ccsc2)S1 | inactive: -1.7% | –
26 | CC(C)(C)OC(=O)C[C@H]1C/C=C\C[C@H](CC(=O)N(CCO)Cc2ccccc2)C(=O)N[C@@H](Cc2ccccc2)COC1=O | inactive: -3.14% | –
27 | OCC[C@H]1C[C@H](O)[C@@H](O)[C@@]2(CCc3ccccc3CO2)O1 | inactive: 10.4% | –
28 | CCOC(=O)[C@@H]1[C@H]2COc3ccc(Br)cc3[C@H]2N2C(=O)N(c3ccc(F)cc3)C(=O)[C@@]12C | inactive: 0% | –
29 | NC(=O)C1=C[C@@H](c2ccccc2)C[C@@H](OCc2ccc(CO)cc2)O1 | inactive: 2.08% | –
30 | C=CC[C@H](CC(=O)NCCO)C(=O)N[C@@H](COC(=O)[C@H](CC=C)CC(=O)OC(C)(C)C)Cc1ccccc1 | inactive: 5.28% | –
31 | C[C@@]12CCC[C@H](O1)[C@@H]([C@H](O)c1ccccc1)O2 | inactive: -1.05% | –
32 | CC(C)[N+]1(C)[C@@H]2CC[C@H]1CC(OC(=O)C(CO)c1ccccc1)C2 (some centres undefined) | – | inactive
33 | O=C(NCc1nc2ccccc2[nH]1)C1=C[C@@H](c2ccccc2)C[C@@H](OCc2ccc(CO)cc2)O1 | inactive: -20.5% | –
34 | O=C(CSc1nc2ccccc2[nH]1)N/N=C/C=C\c1ccccc1[N+](=O)[O-] | inactive: -9.99% | –
35 | O=C(CNC(=O)c1ccccc1O)N/N=C/c1cc(Br)ccc1OC(=O)/C=C/c1ccco1 | – | active: 4.11 µM
36 | CCO[C@H]1OC(C(N)=O)=C[C@@H](c2ccccc2)[C@@H]1CCCO | inactive: -8.81% | –
37 | CCOc1ccc(CN2CCN(Cc3c[nH]c4ccccc34)CC2)cc1 | – | active: 13 µM
38 | Nc1ccn(C2CC(O)C(CO)O2)c(=O)n1 (centres undefined) | inactive: 4.38% | –
39 | CCN1/C(=C2/OC(=S)N(C)C2=O)Sc2ccccc21 | inactive: 19.6% | –
